At least one read-out could not be matched to a standard name with certainty.
Key:
Format in all cases: in vivo
Botrytis cinerea = experiment: Test A: preventive spray on tomato seedlings, visual disease rating (tomato Botrytis); conditions: no asterisk: standard test suspension, not 40 ppm, 100 = 100% disease control, 0 = none
Excerpt: (§1) General protocol for preparing test suspensions for Tests A-F: the test compounds were first dissolved in acetone in an amount equal to 3% of the final volume and then suspended at the desired concentration (in ppm) in acetone and purified water (50/50 mix by volume) containing 250 ppm of the surfactant Trem® 014 (polyhydric alcohol esters). The resulting test suspensions were then used in Tests A-F. Spraying a 200 ppm test suspension to the point of run-off on the test plants was the equivalent of a rate of 800 g/ha. Unless otherwise indicated, the rating values indicate a 200 ppm test suspension was used. (An asterisk “*” next to the rating value indicates a 40 ppm test suspension was used.)
The test suspension was sprayed to the point of run-off on tomato seedlings. The following day the seedlings were inoculated with a spore suspension of Botrytis cinerea (the causal agent of tomato Botrytis) and incubated in saturated atmosphere at 20° C. for 48 h, and then moved to a growth chamber at 24° C. for 3 days, after which time visual disease ratings were made.
(§2) Results for Tests A-F are given in Table A. In the Table, a rating of 100 indicates 100% disease control and a rating of 0 indicates no disease control (relative to the controls). A dash (-) indicates no test results. An asterisk “*” next to the rating value indicates a 40 ppm test suspension was used.

Alternaria solani = experiment: Test B: preventive spray on tomato seedlings, visual disease rating (tomato early blight); conditions: no asterisk: standard test suspension, not 40 ppm
Excerpt: as §1
The test suspension was sprayed to the point of run-off on tomato seedlings. The following day the seedlings were inoculated with a spore suspension of Alternaria solani (the causal agent of tomato early blight) and incubated in a saturated atmosphere at 27° C. for 48 h, and then moved to a growth chamber at 20° C. for 5 days, after which time visual disease ratings were made.
as §2

Septoria nodorum = experiment: Test C: preventive spray on wheat seedlings, visual disease rating (Septoria glume blotch); conditions: no asterisk: standard test suspension, not 40 ppm
Excerpt: as §1
(§3) The test suspension was sprayed to the point of run-off on wheat seedlings. The following day the seedlings were inoculated with a spore suspension of Septoria nodorum (the causal agent of Septoria glume blotch) and incubated in a saturated atmosphere at 24° C. for 48 h, and then moved to a growth chamber at 20° C. for 6 days, after which time visual disease ratings were made.
as §2

Septoria tritici = experiment: Test D: preventive spray on wheat seedlings, visual disease rating (wheat leaf blotch); conditions: no asterisk: standard test suspension, not 40 ppm
Excerpt: as §1
as §3, with “tritici” for “nodorum”, “wheat leaf” for “Septoria glume”, “in” for “in a”, “19” for “6”
as §2

[1] = system: Puccinia recondite f. sp. tritici; experiment: Test E1: curative spray on wheat seedlings after inoculation, visual disease rating (wheat leaf rust); conditions: no asterisk: standard test suspension, not 40 ppm
Excerpt: as §1
Wheat seedlings were inoculated with a spore suspension of Puccinia recondite f. sp. tritici (the causal agent of wheat leaf rust) and incubated in a saturated atmosphere at 20° C. for 24 h, and then moved to a growth chamber at 20° C. for 2 days. After 2 days, the test suspension was sprayed to the point of run-off on the wheat seedlings, and then the seedlings were moved back to the growth chamber at 20° C. for 6 days. Upon removal, visual disease ratings were made.
as §2

[2] = system: Puccinia recondite f. sp. tritici; experiment: Test E2: preventive spray on wheat seedlings, visual disease rating (wheat leaf rust); conditions: no asterisk: standard test suspension, not 40 ppm
Excerpt: as §1
as §3, with “Puccinia recondite f. sp. tritici” for “Septoria nodorum”, “wheat leaf rust)” for “Septoria glume blotch)”, “20°” for “24°”, “24” for “48”, “7” for “6”
as §2

[3] = system: Blumeria graminis f. sp. tritici; experiment: Test F: preventive spray on wheat seedlings, visual disease rating (wheat powdery mildew); conditions: no asterisk: standard test suspension, not 40 ppm
Excerpt: as §1
The test suspension was sprayed to the point of run-off on wheat seedlings. The following day the seedlings were inoculated with a spore dust of Blumeria graminis f. sp. tritici, (also known as Erysiphe graminis f. sp. tritici, the causal agent of wheat powdery mildew) and incubated in a growth chamber at 20° C. for 8 days, after which time visual disease ratings were made.
as §2

Compound | Test A rating (% disease control) (Botrytis cinerea) [%] | Test B rating (% disease control) (Alternaria solani) [%] | Test C rating (% disease control) (Septoria nodorum) [%] | Test D rating (% disease control) (Septoria tritici) [%] | Test E1 rating (% disease control) [1] [%] | Test E2 rating (% disease control) [2] [%] | Test F rating (% disease control) [3] [%]
Cn1nc(Br)c(C(O)c2ccc(F)cc2F)c1-c1ccc(F)cc1Cl (stereo not drawn) [Compound 30, 3-bromo-5-(2-chloro-4-fluorophenyl)-α-(2,4-difluorophenyl)-1-methyl-1H-pyrazole-4-methanol] | 100 | 9 | 0 | 100 | 100 | 99 | 99
Cc1nn(C)c(-c2ccc(F)cc2F)c1C(=O)c1ccc(F)cc1F [Compound 32, (2,4-difluorophenyl)-[5-(2,4-difluorophenyl)-1,3-dimethyl-1H-pyrazol-4-yl]methanone] | 26 | 0 | 0 |  | 0 | 0 | 0
Cc1nn(C)c(-c2c(F)cccc2F)c1C(O)c1ccc(F)cc1F (stereo not drawn) [Compound 14, α-(2,4-difluorophenyl)-5-(2,6-difluorophenyl)-1,3-dimethyl-1H-pyrazole-4-methanol] | 100 | 100 | 99 | 100 | 96 | 100 | 100
Cc1nn(C)c(-c2ccc(F)cc2F)c1Oc1ccc(F)cc1Cl [Compound 5, 4-(2-chloro-4-fluorophenoxy)-5-(2,4-difluorophenyl)-1,3-dimethyl-1H-pyrazole] | 87 | 0 | 0 | 97 | 23 | 92 | 66
Cc1nn(C)c(-c2c(F)cccc2F)c1C(F)c1ccc(F)cc1F (stereo not drawn) [Compound 68, 5-(2,6-difluorophenyl)-4-[(2,4-difluorophenyl)fluoromethyl]-1,3-dimethyl-1H-pyrazole] | 100 | 88 | 99 | 100 | 100 | 100 | 100
Cc1nn(C)c(-c2c(F)cccc2F)c1Sc1ccc(Cl)cc1 [Compound 56, 4-[(4-chlorophenyl)thio]-5-(2,6-difluorophenyl)-1,3-dimethyl-1H-pyrazole] | 0 | 0 | 0 | 0 | 60 | 27 | 97
Cc1nn(C)c(-c2ccc(F)cc2Cl)c1Nc1c(F)cc(C#N)cc1F [Compound 40, 4-[[5-(2-chloro-4-fluorophenyl)-1,3-dimethyl-1H-pyrazol-4-yl]amino]-3,5-difluorobenzonitrile] | 100 | 99 | 99 | 100 | 91 | 100 | 100
